Each structure is given as a SMILES string. Over roughly 110,000 compounds, “z-score” has its median near -0.1; the highest 2% begin near 2. The list shows a part of the results. Active and inactive are the calls of the source.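 The calls were made as follows: active = z-score in the third read window above 3 or below -3; inactive = the rest.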

This test deals with Metabotropic glutamate receptor 8 (Rattus norvegicus) (UniProt P70579). Kind of test: rat mGluR8 modulators via GIRK flux, primary screen, cell-based, thallium flux, HTS (AID 488969). The note with it: HEK293 rat mGluR8, GIRK (G protein-gated inwardly rectifying potassium channel) thallium flux, FluoZin2; at 10 µM; stronger effect = higher value; submaximal glutamate (EC20) added with thallium.
Sequence of UniProt P70579 (P70579 whole entry, looked up): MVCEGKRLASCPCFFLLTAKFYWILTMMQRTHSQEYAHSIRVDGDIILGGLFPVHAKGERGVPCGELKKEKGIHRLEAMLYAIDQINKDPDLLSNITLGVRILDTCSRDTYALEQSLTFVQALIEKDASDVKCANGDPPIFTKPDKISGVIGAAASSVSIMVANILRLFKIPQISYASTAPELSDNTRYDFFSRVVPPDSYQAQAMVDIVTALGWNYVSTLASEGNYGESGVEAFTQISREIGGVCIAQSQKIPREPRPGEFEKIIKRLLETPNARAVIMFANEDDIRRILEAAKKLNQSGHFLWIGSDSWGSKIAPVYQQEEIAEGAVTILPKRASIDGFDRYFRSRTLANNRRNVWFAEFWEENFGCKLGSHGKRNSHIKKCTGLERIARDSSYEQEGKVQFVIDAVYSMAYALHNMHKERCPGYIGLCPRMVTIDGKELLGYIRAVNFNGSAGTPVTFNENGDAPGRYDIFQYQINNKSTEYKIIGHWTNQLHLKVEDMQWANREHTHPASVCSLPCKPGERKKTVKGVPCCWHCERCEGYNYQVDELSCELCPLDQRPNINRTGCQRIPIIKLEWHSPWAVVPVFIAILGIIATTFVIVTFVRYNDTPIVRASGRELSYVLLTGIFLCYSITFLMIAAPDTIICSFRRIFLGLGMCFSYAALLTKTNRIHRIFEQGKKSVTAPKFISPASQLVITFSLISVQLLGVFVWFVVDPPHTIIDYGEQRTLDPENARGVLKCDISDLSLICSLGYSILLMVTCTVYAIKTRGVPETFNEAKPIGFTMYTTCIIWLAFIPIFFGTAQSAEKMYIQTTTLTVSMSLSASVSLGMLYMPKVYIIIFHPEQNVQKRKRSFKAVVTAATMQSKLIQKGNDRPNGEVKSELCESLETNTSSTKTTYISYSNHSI
Take `CCOc1ccccc1C(=O)OCC(=O)Nc1ccc(OC(F)F)cc1`: the z-score is -0.388.

For `CCOc1ccc(-c2cc(CCCC(=O)Nc3cc(OC)ccc3OC)no2)cc1`, the z-score is -0.187.

With `O=C1CN(C(=O)c2cc([N+](=O)[O-])ccc2Cl)C(c2ccc(F)cc2)c2cc(F)ccc2N1` (stereo not drawn), the z-score is -0.204.

As for `O=C(c1ccccc1)N1CCN(C(=O)c2ccccc2Br)CC1`, the z-score is -0.0492.

In turn, `Cc1ccc(C(=O)OCC(=O)Nc2ccccc2C(F)(F)F)cc1S(=O)(=O)N1CCOCC1` gave a z-score of -0.128.

Regarding `CCN(CC)CCNC(=O)C1c2ccccc2C(=O)N(CCOC)C1c1ccc(F)cc1` (stereo not drawn), the z-score is -0.0764.

In turn, `COc1ccc(N2CCN(Cc3nc(N)nc(Nc4ccc(C)c(Cl)c4)n3)CC2)cc1` displayed a z-score of -0.0473.

Regarding `O=c1cc(C(F)(F)F)[nH]c(=O)n1C1CCCCC1`, the z-score stood at 0.885.

`O=C(Nc1ccc2c(c1)OCO2)c1cccs1`: the z-score was -0.16.

`COc1cc(C2C(C#N)=C(N)Oc3c2ccc2ccccc32)ccc1OCC(=O)Nc1ccccc1C` (stereo not drawn) displayed a z-score of -0.124.

In turn, `Cc1ccc(-c2nn3c(C)nnc3c3ccccc23)cc1S(=O)(=O)NCCN1CCOCC1` gave a z-score of -0.342.

Take `O=C(CC1Sc2ccccc2NC1=O)OC(C(=O)NCCc1ccccc1)c1cccnc1` (stereo not drawn): the z-score was -0.222.

In the case of `COc1ccc(S(=O)(=O)N2CCC(C(=O)NCc3ccccn3)CC2)cc1OC`, the z-score was -0.117.

With `O=C(O)/C(=C\c1ccccc1Cl)c1ccc(S(=O)(=O)N2CCCCC2)s1`, the z-score is -0.879.

`COc1ccc(S(=O)(=O)N2CCC(C(=O)Nc3cccc(Cl)c3)CC2)cc1OC` yielded a z-score of -1.49.

`CC(C)(C)c1ccc(/C=C/C(=O)c2ccc(NC3=NCCCS3)cc2)cc1` yielded a z-score of -0.346.

Compound `CCOCC(=O)Nc1cc(C(=O)Nc2cccc(C)c2C)ccc1Cl` came in with a z-score of 0.603.

On to `CCCCc1ccc(S(=O)(=O)Nc2cc(C)on2)cc1`, for which the z-score stood at 0.162.

`CC(C)CCNc1nc2c(c(=O)[nH]c(=O)n2C)n1CC(O)COC(C)C` (stereo not drawn) displayed a z-score of 0.0126.

For the compound `COc1ccc(/C=C/C(=O)NC(=S)NN2CCCCC2c2cccnc2)cc1` (stereo not drawn), the z-score was determined as 0.454.

As to `CCCCN(CCCC)C(=O)/C=C/c1cccc([N+](=O)[O-])c1`, the z-score was -0.191.

As to `CCN(CC(=O)NCc1ccc(F)cc1)Cc1nc2ccccc2c(=O)[nH]1`, the z-score amounted to 1.04.

Turning to `Cc1cc2oc(=O)cc(CN3CCC(C)CC3)c2cc1Cl`, the z-score was found to be 0.585.

Take `Nc1nnc(SCCCC(=O)c2ccc(Br)cc2)s1`: the z-score came out at 0.0024.

Regarding `Cc1ccc(C2CC(=O)Nc3sc(C(N)=O)c(N)c32)cc1` (stereo not drawn), the z-score was -0.314.

`O=C(NC1CCCCC1)N(CCN1CCCC1)Cc1cc2cc3c(cc2[nH]c1=O)OCCO3`: the z-score is -0.421.

For `CS(=O)(=O)N(CC(=O)NCc1ccncc1)Cc1ccc(Cl)cc1`, the z-score was -0.132.

Compound `O=C(NC1CCN(Cc2ccccc2)CC1)c1c(F)cccc1F` yielded a z-score of -0.283.

Compound `O=C(c1cnn2ccccc12)N1CCN(C2CCCCC2)CC1` gave a z-score of 0.424.

Regarding `CCOc1ccccc1N/C(=C(/C(Cl)=C(Cl)Cl)[N+](=O)[O-])n1cncn1`, the z-score was -1.34.

The compound `O=C(c1c(F)cccc1F)N1CCN(c2ncccn2)CC1` returned a z-score of 0.0868.

`COc1ccc(CC(=O)N/N=C/c2cccn2-c2ccc([N+](=O)[O-])cc2)cc1OC` yielded a z-score of -0.892.

For `O=C1CCN(C(=O)Nc2ccccc2)N1`, the z-score was -0.103.

On to `CC(C)(C)n1ncc2c(=O)n(CC(=O)c3ccccc3)cnc21`, for which the z-score is -0.0514.

The compound `COc1ccc(Cl)cc1NC(=O)C1CC(=O)N(c2ccc(F)cc2)C1` (stereo not drawn) showed a z-score of 0.0135.

Regarding `O=C(O)C1CCCN1S(=O)(=O)c1ccc2[nH]c(=O)c(=O)[nH]c2c1` (stereo not drawn), the z-score is 0.188.

As for `Cc1ccc(Cl)cc1N1CCN(S(=O)(=O)c2ccc3c(c2)oc(=O)n3C)CC1`, the z-score is -0.0595.

As to `Cc1noc(C)c1COc1ccc(C(=O)OC(C)C(=O)Nc2ccc(N3CCOCC3)cc2)cc1` (stereo not drawn), the z-score came to 1.49.

Take `COc1cc2nc(SCc3ccc(F)cc3)n(Cc3cccs3)c(=N)c2cc1OC`: the z-score amounted to 0.054.

As for `Cn1c(-c2cc3c(C(F)(F)F)nn(C)c3s2)n[nH]c1=S`, the z-score was -0.114.

As for `COc1ccccc1-n1c(SCC(=O)c2ccc(O)cc2O)nc2cc([N+](=O)[O-])ccc21`, the z-score is 0.107.

The compound `COc1cc(CN2CCC(C(=O)N3CCN(c4ccccc4F)CC3)CC2)ccc1O` yielded a z-score of -1.28.

In turn, `CC(=O)c1ccc(NC(=O)COC(=O)c2ccccc2Nc2ccccc2)cc1` showed a z-score of 0.00446.

Regarding `CCCCn1c(C(C)NC(=O)CCC)nc2ccccc21` (stereo not drawn), the z-score is -0.443.

On to `Cc1cc(-c2nc3c4c5c(sc4[nH]c(=O)n3n2)CCC5)c(C)o1`, for which the z-score turned out to be 0.435.

As for `CCC(=O)N1CCc2cc(S(=O)(=O)CCC(=O)Nc3ccc(F)c(F)c3)ccc21`, the z-score came out at 0.0449.

`Cc1ccc(N2CC(C(N)=O)CC2=O)cc1C` (stereo not drawn) showed a z-score of 0.11.

In turn, `CCOC(=O)c1ccccc1N/C=C1\CCCCC1=O` had a z-score of 0.954.

Take `O=C1N/C(=N\N=C\c2cccs2)SC1Cc1cccc(Cl)c1Cl` (stereo not drawn): the z-score was -0.0827.

Compound `O=C1c2ccccc2S(=O)(=O)N1CC(O)Cn1ccc2ccccc21` (stereo not drawn) registered a z-score of -0.00873.

`CC1Cc2ccccc2N1C(=O)COC(=O)c1cccnc1Cl` (stereo not drawn) returned a z-score of -0.164.

Regarding `CCN(CC)S(=O)(=O)c1ccc(O)c(NC(=O)c2ccc(N3CCOCC3)c([N+](=O)[O-])c2)c1`, the z-score was -0.295.

In turn, `COc1ccc(Nc2ncnc3sc(-c4ccccc4)cc23)cc1` had a z-score of -0.272.

Regarding `COC(=O)C1CSc2[nH]c(=O)sc2C1c1ccccc1` (stereo not drawn), the z-score turned out to be 0.00576.

As for `COC(=O)c1cccc(Cn2c(Cl)c(/C=N/Nc3ccccc3C)sc2=O)c1`, the z-score is -0.0909.

`C(=C1/CCCC2=C1Nc1ncnn1C2c1ccccc1)/c1ccccc1` (stereo not drawn) gave a z-score of 0.372.

Turning to `CCC(C)NC(=O)CSC1=Nc2ccccc2C2=NC(CCC(=O)NCc3ccco3)C(=O)N12` (stereo not drawn), the z-score was -0.161.

`CC1=CN2C(=NC(=O)CC2(C)C(=O)N(CC(=O)NC2CCCC2)c2ccccc2C)C=C1` (stereo not drawn): the z-score came out at 0.0482.

`Cc1nc(N)sc1-c1nnc(SCC(=O)Nc2nccs2)n1C` showed a z-score of -0.154.

As to `CCCCC(=O)Nc1sc2c(c1-c1nc3ccccc3s1)CCN(C(C)=O)C2`, the z-score was -0.439.

`Cc1noc(NC(=O)c2ccccc2)c1C#N`: the z-score was -0.212.

Compound `Cc1ccc(NC(=O)CCSc2nnnn2-c2ccc3c(c2)OCO3)cc1C` returned a z-score of -0.59.

`CS(=O)(=O)NCCC1=CCCCC1`: the z-score worked out at 0.209.

In turn, `O=C(Nc1ccc(N2CCN(C(=O)c3ccco3)CC2)cc1)c1ccc2c(c1)OCO2` had a z-score of 0.192.

For `Cc1cc(=O)oc(C)c1C(=O)N1CCCCC1`, the z-score is -0.149.

Turning to `CCCCOC(=O)Nc1nnc(CCc2ccccc2)s1`, the z-score worked out at 0.00958.

As to `O=C(COC(=O)Cc1ccccc1[N+](=O)[O-])NCc1ccc(Cl)cc1`, the z-score was -0.213.

For the compound `CC(/C=C/c1ccc2c(c1)OCO2)=N\NC(=O)c1cccc([N+](=O)[O-])c1`, the z-score was 0.646.

As for `C1CCN(Cc2nnnn2C2CCCC2)CC1`, the z-score amounted to 0.0262.

In turn, `CC(Sc1nnc(-c2cccs2)n1-c1ccccc1)C(=O)NCc1ccc2c(c1)OCO2` (stereo not drawn) came in with a z-score of 0.443.

`COc1ccc(C2=NN(C(C#N)c3ccc(OC)c(OC)c3)C(c3ccccc3)C2)cc1` (stereo not drawn) gave a z-score of -0.201.

In turn, `Cc1[nH]nc2c1C1(CCC3(CC1)OCCO3)C(C#N)=C(N)O2` displayed a z-score of -0.155.

`CCOC(=O)c1sc(N(C)C)nc1-c1ccccc1` came in with a z-score of -0.559.

`COc1ccc(/C=C/C(=O)c2ccccc2)cc1COc1ccc(F)cc1` yielded a z-score of -0.00338.

Compound `CCC(C)(NC(=O)c1ccc(=O)[nH]c1)C(=O)NC1CCCC1` (stereo not drawn) returned a z-score of 0.0173.

`CN(Cc1nc2ccccc2n1C)S(=O)(=O)c1ccc(F)cc1` displayed a z-score of 0.229.

In the case of `Cc1cccc2cc(COC(=O)c3cccs3)c(=O)[nH]c12`, the z-score was -0.507.

`CC1CC(=O)c2cnc(NCC3CCCO3)nc2C1` (stereo not drawn) had a z-score of 0.252.

The compound `CSCCC(NC(=O)c1ccccc1)C(=O)OCC(=O)c1ccc[nH]1` (stereo not drawn) returned a z-score of -0.554.

`COc1cc(/C=C2/SC(=S)N(CC(=O)Nc3cccnc3)C2=O)cc(OC)c1OC`: the z-score worked out at 0.317.

For `CCOC(=O)C1CCCN(Cc2ccc3c(c2)OCO3)C1` (stereo not drawn), the z-score was -0.574.

Regarding `O=C(Nc1ccc(Br)cc1)C1CCC(=O)N1Cc1ccccc1Cl` (stereo not drawn), the z-score was active: 4.3.

With `O=C(CCN1C(=O)C2C3C=CC(C3)C2C1=O)Nc1ccccn1` (stereo not drawn), the z-score is 0.89.

For `CCN(CC)CCOc1ccc2c(c1)C(=NO)c1cc(OCCN(CC)CC)ccc1-2`, the z-score was found to be 1.22.

Compound `Cc1cc(C)n(C(=O)CNC(=O)c2ccco2)n1` had a z-score of 0.615.

As for `COc1cc(/C(C)=N/NC(=O)CSc2nncn2C)ccc1OCc1ccccc1Cl`, the z-score was -0.378.

Compound `Cc1nc2ccc(S(=O)(=O)NCC(=O)N(C)Cc3ccco3)cc2s1` had a z-score of 0.315.

In turn, `O=C(N/N=C(/CC(=O)c1cccs1)C(F)(F)F)c1ccc(O)cc1` displayed a z-score of -0.828.

Compound `CC(C)NS(=O)(=O)c1cccc2nsnc12` had a z-score of -0.236.

On to `CCNC(=O)CN1C(=O)NC(CCc2ccccc2)C1=O` (stereo not drawn), for which the z-score is -0.12.

As for `COc1ccccc1-n1cnnc1SC1CCOC1=O` (stereo not drawn), the z-score is 0.0218.

`O=C(C1CCCCN1S(=O)(=O)c1ccc(F)cc1)N1CCN(c2ccccc2F)CC1` (stereo not drawn) had a z-score of -0.386.

`Cc1ccc(S(=O)(=O)NC(CC(C)C)C(=O)Nc2nccs2)cc1` (stereo not drawn) gave a z-score of -0.335.

`CC(=O)c1sc2nc(-c3cccs3)ccc2c1N` registered a z-score of -0.684.

As to `CCc1ccc(/C=C2/C(=O)N(c3ccccc3)C(=S)N2CC(=O)OC)s1`, the z-score was -0.103.

With `COc1ccc(-c2nn(-c3ccccc3)cc2C2CC(c3cccs3)=NN2C(=O)CCCC(=O)O)cc1` (stereo not drawn), the z-score is -0.298.

On to `O=C1N(c2cccc(Cl)c2)C(c2ccc(Cl)cc2)N2CCCN12` (stereo not drawn), for which the z-score was -0.0961.

`CCOC(=O)CN1N=C(/C=C/c2ccc(OC)cc2)CCC1=O` came in with a z-score of 0.0234.

`CC1(C)Cc2c(sc3c2c(=N)n(Cc2ccco2)c(=O)n3CC(=O)Nc2ccccc2)CO1` gave a z-score of 0.0148.

As to `COC(=O)c1c(C(=O)OC)c2n(c1C)CCC2`, the z-score was 1.16.

Consider `CCN(CCCNC(=O)C1CCC(=O)N1Cc1ccc(C)cc1)c1cccc(C)c1` (stereo not drawn), for which the z-score is -0.447.

`CC(=O)NC1C(=O)N=C(SCC(=O)NC2CCCCC2)NC1=O` (stereo not drawn) registered a z-score of -0.0825.

On to `CCOC(=O)c1ccc(NC(=O)CN2C(=O)C(C)SC(C)C2=O)cc1` (stereo not drawn), for which the z-score is -0.088.

`CC1CCCN(C(=O)CSc2nnc3n(C4CCCC4)c(=O)c4ccccc4n23)C1` (stereo not drawn) gave a z-score of -0.217.

Regarding `OCCSc1nc2ccccc2n1CCOc1ccccc1`, the z-score was -0.0972.

In turn, `COCCn1c(SCc2c(F)cccc2Cl)nc2c1c(=O)[nH]c(=O)n2C` had a z-score of 0.0678.

Turning to `CCCCn1c(=N)n(CC(O)COc2cccc(C)c2)c2ccccc21` (stereo not drawn), the z-score is active: 4.52.

Compound `CCS(=O)(=O)NCCc1csc(-c2ccccc2)n1` yielded a z-score of -0.276.

The values are drawn from PubChem BioAssay AID488969 (Vanderbilt High Throughput Screening Facility, 2010).
